Measurements from patent US20120201826A1 (NOV IMMUNE S A, published 2012).

T1: recombinant human RANTES (huRANTES, Peprotech) (human, UniProt P13501 24-91)
T1 sequence: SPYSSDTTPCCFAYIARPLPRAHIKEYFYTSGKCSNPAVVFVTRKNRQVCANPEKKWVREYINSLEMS

B1: A9 scFv (scFv)
chain: [omitted - about 100 residues]DLGYCTNGVCWGIDYWGQGTMVTVSSNFMLTQPHSVSESPGKTVTISCTRSSGSIADNYVQWYQQRPGSAPTTIIYDDDQRLSGVPDRFSGSIDTSSNSASLSISGLRTEDEADYYCQSYDDSNDVFGGGTKLTVL
B2: C10 scFv (scFv)
chain: [omitted - about 100 residues]VRGSSQYDFWSGSEFDYWGQGTMVTVSSSYVLTQPPSVSVAPGKTASISCGGDNIGGQNVHWYQQKPGQAPVLVIYYDTDRPSGIPERFSGSNSGNTATLSISRVEAADEADYYCQVWDVDSDHPWVFGGGTKLTVL

Biological target: T1, recombinant human RANTES (huRANTES, …)
Assay: cell-based or functional assay

Row | Binder | Chemotaxis IC50 (nM); L1.2 cells expressing hCCR5, 1 nM huRANTES; scFv format
1 | B1 | 72 nM
2 | B2 | 41 nM
